Results published in PMC12794186, “Covalent Alkynylpyridopyrimidinones Targeting Cysteine 775 of the Epidermal Growth Factor Receptor Overcome Resistance to Current Therapies” (Journal of Medicinal Chemistry, 2025).
Several values for one entry are separate records, joined by “and”; a condition that tells them apart may be missing. Identical values can stand only once. Like-named read-outs stand apart in the source and are kept apart here.

Columns and labels:
[1] = molecular target: recombinant triply mutated EGFR L858R, T790M, C797S kinase domain (mLTC-EGFR) (Homo sapiens, UniProt P00533, C797S/L858R/T790M); test: TR-FRET fluorescent probe displacement assay; assay type: binding
[2] = molecular target: L858R/T790M-nanoLuc reporter EGFR in HEK293T cells (Homo sapiens, UniProt P00533, L858R/T790M); test: cell-based
[3] = system: BaF3 EGFR del19/T790M/C775A cells; test: Ba/F3 growth inhibition (CellTiter Glo); assay type: cell-based, Murine; conditions: Mus musculus, BaF3, absence of IL-3, 72 h, read-out: dTC2: del19/C775A GI50
Description: (§1) Growth inhibition in Ba/F3 cell lines were assessed in a 384-well format by CellTiter Glo assay (Promega) using the manufacturer’s recommended protocol. Cells were seeded on the day of compound addition and assessed following 72 h incubation including a vehicle only control. Ba/F3 EGFR-WT cells required supplementation with EGF (100 ng/mL, ThermoFisher, Cat No. PHG0311).

[4] = system: BaF3 EGFR L858R/T790M/C797S cells; test: Ba/F3 growth inhibition (CellTiter Glo); assay type: cell-based, Murine; conditions: BaF3, absence of IL-3, 72 h, read-out: LTC: L858R/T790M/C797S GI50
Description: as §1

[5] = system: BaF3 EGFR del19/T790M/C797S cells; test: Ba/F3 growth inhibition (CellTiter Glo); assay type: cell-based, Murine; conditions: Mus musculus, BaF3, absence of IL-3, 72 h, read-out: dTC: del19/C797S GI50
Description: as §1

[6] = system: BaF3 EGFR L858R/T790M/C775A cells; test: Ba/F3 growth inhibition (CellTiter Glo); assay type: cell-based, Murine; conditions: BaF3 C775A mutant lines vs L858R/T790M and L858R/T790M/C797S
Description: as §1

H1975 C797S cells = test: Adherent cell growth inhibition (CyQUANT); assay type: cell-based; conditions: Homo sapiens, NCI-H1975; replenishment of compound every 72 h; read-out: H1975/C797S EGFR GI50
Description: For adherent cell assays, each cell line was plated on day 0 in a 96-well plate at a density known to allow for exponential growth over 72 h. After 24 h, the compounds were diluted to the required concentrations in DMEM + 10% FBS media, maintaining a consistent final DMSO concentration of 0.1%. The cells were then incubated for 72 h at 37 °C with 5% CO2. Growth inhibition was then assessed using a CyQUANT Direct Cell Proliferation assay (Invitrogen Cat No. C35011) following the manufacturer’s instructions. Fluorescence intensity (ex/em 480/520 nm) values were acquired using a PHERAstar microplate reader reader (BMG Labtech) and values were expressed as a percentage of the average DMSO treated value.

[7] = system: EGFR phosphorylation (Tyr1068) in H1975 C797S cells; test: HTRF cellular EGFR phosphorylation; assay type: cell-based; conditions: Homo sapiens, NCI-H1975, mean ± SD of 4 experiments, read-out: H1975/C797S pEGFR IC50
Description: (§2) Cells were plated at 20,000 cells per well in 96-well plates and placed at 37 °C with 5% CO2. Compounds were reconstituted in DMSO. Once adhered (after 24 h), cells were treated with compounds at a final concentration of 0.1% DMSO in media. Compounds were added to duplicate wells and incubated 37 °C for 3 h with 5% CO2. For A431 cells 0.5 h before the end of incubation; 100 ng/mL of EGF (Thermo Fisher, Cat. No. PHG0311) was added to all compound-treated cells as well as control. Compound and media were removed from the cells, and then 50 μL of HTRF lysis buffer was added (lysis buffer was diluted from 4× stock to 1× in deionized (DI) water, with 1% blocking agent also added). Cells were lysed on a plate shaker (2000 rpm) for 30 min at room temperature. pEGFR expression was assessed using the Human Phospho-EGFR (Tyr1068) cellular detection kit (Revvity, Cat. No. 64EG1PEH). Total EGFR expression was monitored using the Human Total EGFR cellular detection kit (Revvity, Cat. No. 64NG1PEH) as per the manufacturer’s instructions. […] Results were calculated as the ratio of pEGFR/total EGFR and then the percentage of 0 μM control.

[8] = system: EGFR phosphorylation (Tyr1068) in H1975 (L858R, T790M) cells; test: HTRF cellular EGFR phosphorylation; assay type: cell-based, human; conditions: H1975 and H1975 C797S vs A431, HTRF
Description: as §2

[9] = system: L858R/T790M/C797S (TM-EGFR); conditions: published fragment; reference number not given; cited from earlier work
[10] = system: BAF EGFR L858R/C797S cells; conditions: BAF EGFR cell line; published compound, reference number not given; cited from earlier work
[11] = TR-FRET, n > 3, read-out: mLTC-EGFR pIC50 ± std dev (converted)
[12] = TR-FRET, read-out: mLTC-EGFR IC50
[13] = TR-FRET, n > 3, read-out: mLTC-EGFR IC50

Structure (SMILES) | IC50 [1, 11] | IC50 [1, 12] | IC50 [1, 13] | also measured
C=Cc1cc(=O)n(-c2ccccc2)c2nc(Nc3ccccc3OC)ncc12 [Compound S11] | 10 µM | 11 µM | – | –
C=CC(=O)NCc1cc(=O)n(-c2ccccc2)c2nc(Nc3ccccc3OC)ncc12 [Compound S4] | > 100 µM | > 100 µM | – | –
C#Cc1cc(=O)n(-c2ccccc2)c2nc(Nc3ccc(N4CCN(C)CC4)cc3OC)ncc12 [Compound 8, 5-Ethynyl-2-(2-methoxy-4-(4-methylpiperazine-1-ylphenyl)amino)-8-phenylpyrido[2,3-d]pyrimidin-7(8H)-one] | 0.01 µM | – | < 0.01 µM and 0.0091 µM | –
C=CC(=O)NCCOc1cccc(-c2nn(C)c3ncnc(N)c23)c1 [Compound S6] | > 100 µM | > 100 µM | – | –
C#Cc1cc(=O)n(-c2ccccc2)c2nc(Nc3ccc(N(C)CCN(C)C)cc3)ncc12 [Compound 7, 2-((4-((2-(Dimethylamino)ethyl)(methyl)amino)phenyl)amino)-5-ethynyl-8-phenylpyrido[2,3-d]pyrimidin-7(8H)-one] | 0.00501 µM | – | < 0.01 µM and 0.0056 µM | IC50 [2]: 0.19 ± 0.04 µM; GI50 [3]: 1.5 ± 0.45 µM; GI50 [4]: < 0.1 µM; GI50 ([4]; Mus musculus, Ba/F3 EGFR, 72 h): 0.086 ± 0.012 µM; GI50 [5]: 0.052 ± 0.007 µM; activity in C775A mutant cell lines [6]: significant loss of activity; GI50 (H1975 C797S cells): 2.1 ± 1.1 µM; IC50 [7]: 0.24 ± 0.037 µM; margin to A431 (WT-EGFR), inhibition of EGFR phosphorylation [8]: > 10 fold
C=CC(=O)NCCOc1ccc(-c2nn(C)c3ncnc(N)c23)cc1 [Compound S7] | > 100 µM | > 100 µM | – | –
C=CC(=O)Nc1cc(-c2cn(C)c3ccccc23)ncn1 [Lead C775-binding fragment] | – | – | – | IC50 [9]: 0.9 µM
C#Cc1cc(=O)n(-c2ccccc2)c2nc(Nc3ccc(N(C)C(=O)CN(C)C)cc3OC)ncc12 [Compound 12, 2-(Dimethylamino)-N-(4-((5-ethynyl-7-oxo-8-phenyl-7,8-dihydropyrido[2,3-d]pyrimidin-2-yl)amino)-3-methoxyphenyl)-N-methylacetamide] | 0.02 µM | – | 0.019 µM | –
C=CC(=O)Nc1cc(C(=O)Nc2nc3cccc(Cl)c3n2[C@@H]2CCCCN(C(=O)C=C)C2)cs1 [dual C775–C797 inhibitor] | – | – | – | GI50 [10]: 0.52 µM
COc1ccccc1Nc1ncc2ccc(=O)n(-c3ccccc3)c2n1 [Compound S10] | 7.94 µM | 7.8 µM | – | –
C#Cc1cc(=O)n(-c2ccccc2)c2nc(Nc3ccc(N4CCOCC4)cc3)ncc12 [Compound 6, 5-Ethynyl-2-((4-morpholinophenyl)amino)-8-phenylpyrido[2,3-d]pyrimidin-7(8H)-one] | 0.00398 µM | – | < 0.01 µM and 0.0042 µM | –
C#Cc1cc(=O)n(-c2ccccc2)c2nc(Nc3ccc(N(C)C(=O)CCOC)cc3OC)ncc12 [Compound 11, N-(4-((5-Ethynyl-7-oxo-8-phenyl-7,8-dihydropyrido[2,3-d]pyrimidin-2-yl)amino)-3-methoxyphenyl)-3-methoxy-N-methylpropanamide] | 0.0631 µM | – | 0.064 µM | –
C=CC(=O)Nc1cccc(-c2nn(C)c3ncnc(N)c23)c1 [Compound S1] | > 100 µM | > 100 µM | – | –
C=CC(=O)NCc1cccc(-c2nn(C)c3ncnc(N)c23)c1 [Compound S3] | > 100 µM | > 100 µM | – | –
C#Cc1cc(=O)n(-c2ccccc2)c2nc(Nc3ccc(N4CCOCC4)cc3OC)ncc12 [Compound 5, 5-Ethynyl-2-((2-methoxy-4-morpholinophenyl)amino)-8-phenylpyrido[2,3-d]pyrimidin-7(8H)-one] | 0.00398 µM | – | < 0.01 µM and 0.0043 µM | –
C#Cc1cc(=O)n(-c2ccccc2)c2nc(Nc3ccc(N4CCN(C)CC4)cc3)ncc12 [Compound 9, 5-Ethynyl-2-((4-(4-methylpiperazin-1-yl)phenyl)amino)-8-phenylpyrido[2,3-d]pyrimidin-7(8H)-one] | 0.00398 µM | – | < 0.01 µM and 0.0036 µM | –
C#Cc1cc(=O)n(-c2ccccc2)c2nc(Nc3ccc(N(C)C(=O)COC)cc3OC)ncc12 [Compound 10, N-(4-((5-Ethynyl-7-oxo-8-phenyl-7,8-dihydropyrido[2,3-d]pyrimidin-2-yl)amino)-3-methoxyphenyl)-2-methoxy-N-methylacetamide] | 0.0316 µM | – | 0.033 µM | –
C=CC(=O)Nc1ccccc1Oc1ccc(-c2nn(C)c3ncnc(N)c23)cc1 [Compound S8] | > 100 µM | > 100 µM | – | –
C#CC(=O)Nc1ccccc1Oc1ccc(-c2nn(C)c3ncnc(N)c23)cc1 [Compound S9] | 25.1 µM | 23 µM | – | –
CC#Cc1cc(=O)n(-c2ccccc2)c2nc(Nc3ccccc3OC)ncc12 [Compound S12] | > 100 µM | > 100 µM | – | –
C#Cc1cc(-c2cnn3ccccc23)nc(Nc2ccccc2)n1 [Compound 2, 4-Ethynyl-N-phenyl-6-(pyrazolo[1,5-a]pyridin-3-yl)pyrimidin-2-amine] | – | 22 ± 11 µM | – | selectivity over the wild-type protein ([1]; mLTC-EGFR vs WT-EGFR, TR-FRET): 2 fold; IC50 ([1]; supplementary csv, read-out: TM pIC50 (converted)): 20 µM
C#CC(=O)NCc1cc(=O)n(-c2ccccc2)c2nc(Nc3ccccc3OC)ncc12 [Compound S5] | > 100 µM | > 100 µM | – | –
C#CC(=O)Nc1cccc(-c2nn(C)c3ncnc(N)c23)c1 [Compound S2] | 20 µM | 20 µM | – | –
